Results from PubChem BioAssay AID1460 (National Center for Advancing Translational Sciences (NCATS), 2008).
About 5,800 (2.1%) of roughly 270,000 compounds were called active. Inconclusive results, whose numbers are uncertain, are shown with a selection of clear calls. Calls follow the shape of the dose curve; as a rule, active = well fitted inhibition curve with a large enough effect; inconclusive = small, poorly fitted or top-dose-only effect; inactive = flat fitted curve, though single readings scatter. A potency beside an inconclusive call is a rough fit, not a confirmed value.

Target: Microtubule-associated protein tau (Homo sapiens) (UniProt P10636)
Test: qHTS for Inhibitors of Tau Fibril Formation, Thioflavin T Binding; also: nearly all actives have a fitted effect of over 55% in size
Settings: recombinant tau K18 P301L, heparin-induced fibrillization, ThT fluorescence; series mostly up to 57.4 µM
In short: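 Fibril formation assay: tau K18 P301L at 15 uM with trace Alexa 594 label, heparin inducer 20 uM, pH 7 sodium acetate buffer, 37 C for 6 hr; endpoint ThT signal.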
Potency is read from the fitted curve at half-maximal effect; tags tell the direction and shape of the fitted curve.

UniProt P10636, sequence (P10636 whole entry, looked up): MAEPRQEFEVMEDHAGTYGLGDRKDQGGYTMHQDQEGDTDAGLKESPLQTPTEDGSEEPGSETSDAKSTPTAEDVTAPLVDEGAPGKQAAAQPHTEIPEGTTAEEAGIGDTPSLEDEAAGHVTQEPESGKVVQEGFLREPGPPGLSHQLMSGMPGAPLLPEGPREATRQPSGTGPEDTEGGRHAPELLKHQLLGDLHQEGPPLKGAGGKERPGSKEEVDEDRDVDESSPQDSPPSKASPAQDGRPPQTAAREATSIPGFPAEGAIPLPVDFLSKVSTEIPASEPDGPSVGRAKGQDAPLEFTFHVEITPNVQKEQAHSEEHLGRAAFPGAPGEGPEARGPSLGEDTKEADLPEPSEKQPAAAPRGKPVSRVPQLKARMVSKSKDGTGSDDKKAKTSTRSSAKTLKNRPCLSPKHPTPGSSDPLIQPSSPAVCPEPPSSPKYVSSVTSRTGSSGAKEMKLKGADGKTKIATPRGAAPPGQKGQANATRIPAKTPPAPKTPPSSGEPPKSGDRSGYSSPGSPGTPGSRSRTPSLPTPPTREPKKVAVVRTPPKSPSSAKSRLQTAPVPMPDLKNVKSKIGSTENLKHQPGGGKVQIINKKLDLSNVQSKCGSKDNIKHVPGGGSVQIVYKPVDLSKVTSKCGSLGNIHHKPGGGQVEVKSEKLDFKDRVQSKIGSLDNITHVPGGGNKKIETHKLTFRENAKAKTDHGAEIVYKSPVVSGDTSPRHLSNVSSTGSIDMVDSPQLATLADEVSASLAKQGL

| SMILES | Potency |
| --- | --- |
| Cc1noc(NS(=O)(=O)c2ccc(N/C=C/C(=O)c3ccc4c(c3)OCO4)cc2)c1C | inconclusive: 15.8 µM [inhibitor, partial curve] |
| COc1ccc(C2CC(=O)N(C)c3ccccc3S2)cc1OC (stereo not drawn) | inactive |
| COc1ccc(-c2cc(-c3cccs3)c(C#N)c(SCC(=O)NCc3ccccc3)n2)cc1 | inactive |
| CCCn1c2c(c(O)c(C(=O)Nc3nccs3)c1=O)CCCC2 | inconclusive: 31.6 µM [inhibitor, partial curve] |
| COc1cc(OC)c(-c2cc(C(=O)NCc3ccc(F)cc3)c3c(-c4ccccc4)[nH]nc3n2)cc1OC | inconclusive: 7.08 µM [inhibitor, partial curve] |
| Cc1cc(C)nc(N/N=C/c2ccc(Cl)cc2)n1 | inactive |
| CCOc1ccc(OCC(=O)Nc2ccc(OC)cc2)cc1 | inconclusive: 7.08 µM [inhibitor, partial curve] |
| Cc1ccc(CCNC(=O)CCCn2c(=O)c3ccccc3n(Cc3ccccc3C)c2=O)cc1 | inactive |
| O=C(CSc1cnc2ccccc2n1)c1ccc(F)cc1 | active: 14.1 µM |
| Clc1ccc2c(NCc3ccccn3)ncnc2c1 | inactive |
| O=C(COc1ccc(F)cc1)NCC(c1ccc(Cl)cc1)N1CCCCC1 (stereo not drawn) | inactive |
| COCCNC(=O)C(=O)NNS(=O)(=O)c1ccc2ccccc2c1 | inactive |
| Nc1ccc(Nc2nc(-c3cc4ccccc4oc3=O)cs2)cc1 | inconclusive: 2.82 µM [inhibitor, full curve] |
| O=c1c2cc(-c3ccccc3)sc2nc2n1CCC2 | inconclusive: 8.91 µM [inhibitor, partial curve, poor fit] |
| CCCN1CN(Cc2ccccc2)CNC1=S | inactive |
| CCCS(=O)(=O)c1nc(S(=O)(=O)c2ccc(C)cc2)c(NCc2ccccc2Cl)s1 | inactive |
| N#CCc1ccc(Oc2ncc(C(F)(F)F)cc2Cl)cc1 | inactive |
| Cc1cccc2nc(CSc3nc4cc([N+](=O)[O-])ccc4s3)cn12 | inconclusive: 1.78 µM [inhibitor, full curve] |
| Cc1cc(C)cc(NC(=O)Nc2ccc3nc(N4CCN(C)CC4)cc(C)c3c2)c1 | inconclusive: 14.1 µM [inhibitor, partial curve] |
| CCOC(=O)N1CCC(c2cc(=O)n3[nH]cc(C(=O)OC)c3n2)CC1 | inactive |
| CCOc1ccc(NC(=O)Cn2ccn3nc(-c4ccc(OC)c(OC)c4)cc3c2=O)cc1 | inactive |
| C/C(=C\C(=O)c1ccccc1)Nc1cccc(O)c1 | inconclusive: 5.01 µM [inhibitor, full curve] |
| O=C(NNC(=S)Nc1ccc(OC(F)F)cc1)c1cc2c(s1)CCCC2 | inconclusive: 15.8 µM [inhibitor, partial curve] |
| Cc1cc(N/N=C/c2ccncc2)nc2ccccc12 | inconclusive: 14.1 µM [inhibitor, partial curve] |

| SMILES | Potency |
| --- | --- |
| N#CC(c1nc2ccccc2nc1N1CCCC1)S(=O)(=O)c1cccs1 (stereo not drawn) | inconclusive: 25.1 µM [inhibitor, partial curve] |
| O=C(NC1CCCc2ccccc21)c1ccc2c(c1)sc1nc(-c3ccccc3)cn12 (stereo not drawn) | inactive |
| O=C(Cn1c(=O)n(Cc2ccccc2)c(=O)c2sc3ccccc3c21)Nc1ccccc1F | inconclusive: 5.01 µM [activator, full curve, poor fit] |
| Cc1c(/C=N/NC(=O)CNc2ccccc2)c2ccccn2c1C(=O)c1ccc(Cl)cc1 | inconclusive: 14.1 µM [inhibitor, partial curve] |
| C=CCn1c(N)c(C(=O)NCc2ccco2)sc1=S | inactive |
| COC(=O)c1ccc(NC(=S)NCCC2=CCCCC2)cc1 | inactive |
| O=C1NN(c2ccc(F)cc2)C(=O)/C1=C\C=C\c1ccco1 | active: 12.6 µM |
| Cc1ccc(-n2c3nc(=O)[nH]c(=O)c-3cc3c(C)nn(-c4ccccc4)c32)cc1C | inconclusive: 0.355 µM [inhibitor, partial curve, poor fit] |
| CC(C)c1nc(C#N)c(NN)o1 | inconclusive: 31.6 µM [inhibitor, partial curve, poor fit] |
| NCCC[C@@H](CC(=O)N[C@@H]1CCCC[C@H]1C(=O)N[C@H](CC(=O)N[C@@H](CCC(=O)O)CC(=O)O)Cc1c[nH]c2ccccc12)NC(=O)C[C@H](Cc1ccccc1)NC(=O)[C@@H]1CNCC[C@H]1N | inactive |
| Cc1cccc(/C=N/n2c(-c3cc(-c4ccccc4)n[nH]3)n[nH]c2=S)c1 | inconclusive: 15.8 µM [inhibitor, partial curve] |
| COc1ccc2[nH]c(C)c(C(=O)CN3CCc4cc(OC)c(OC)cc4C3)c2c1 | inactive |
| CCC(c1nnnn1Cc1cccs1)N1CCN(c2nc3ccccc3s2)CC1 (stereo not drawn) | inactive |
| O=C(c1ccc(Cl)cc1)c1c[nH]c(C(=O)NNc2ccccc2)c1 | inconclusive: 11.2 µM [inhibitor, partial curve] |
| CCOc1ccc(NC(=O)Nc2cccnc2)cc1 | inconclusive: 31.6 µM [inhibitor, single point] |
| COc1ccc(CSc2n[nH]c(C)n2)cc1[N+](=O)[O-] | inactive |
| Cc1ccc(CNc2ccc(Cl)cc2[N+](=O)[O-])cc1 | inconclusive: 15.8 µM [inhibitor, partial curve] |
| COc1ccc(-c2nc(NC(=O)c3[nH]c(C)c(C(C)=O)c3C)sc2C)cc1 | inconclusive: 8.91 µM [inhibitor, partial curve] |
| O=C1c2ccccc2C(=O)N1c1cccc(-c2csc(Nc3ccc4c(c3)OCO4)n2)c1 | active: 8.91 µM |
| CCOC(=O)c1cccc(NS(=O)(=O)c2cc(-c3cnc(C4CC4)o3)ccc2C)c1 | inactive |
| O=C(O)CCC(=O)Nc1sc2c(c1C(=O)Nc1ccccc1)CCCCC2 | active: 14.1 µM |
| COc1ccccc1-c1ccc(SCc2cccc(C)c2)nn1 | inconclusive: 28.2 µM [inhibitor, single point] |
| O=[N+]([O-])c1c(NCCCO)cc(SCc2ccco2)c2nonc12 | active: 7.94 µM |
| COc1ccc(-c2cc(C3CC3)nc3sc(C#N)c(N)c23)cc1 | inconclusive: 14.1 µM [inhibitor, partial curve] |
